In PubChem BioAssay AID686979 (National Center for Advancing Translational Sciences (NCATS), 2013):
Several values for one entry are separate records, joined by “and”; a condition that tells them apart may be missing. Equal values may be shown once. Hit rate of the full screen: of about 420,000 compounds, about 50,000 (12%) were called active. Inconclusive results, whose numbers are uncertain, are shown with a selection of clear calls. The call rests on the fitted dose curve; in most records, active means well fitted inhibition curve with a large enough effect; inconclusive means small, poorly fitted or top-dose-only effect; inactive means flat fitted curve, though single readings scatter. Potencies of inconclusive entries are doubtful fits and often do not repeat. Where a structure was tested more than once in an assay, its records may differ in their call.

test: qHTS for Inhibitors of human tyrosyl-DNA phosphodiesterase 1 (TDP1): qHTS in cells in presence of CPT; details: chicken DT40 Tdp1-/-;hTDP1 cells + 20 nM CPT, ATP luminescence, 48 h; activity change, negative = growth inhibition: at 46.2 µM (top of the series) unless noted; further: nearly all actives have a fitted effect of over 55% in size
Outline: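 Chicken DT40 Tdp1-/- cells stably complemented with human TDP1 were seeded at 400 cells/well in medium containing 20 nM camptothecin, exposed to pin-transferred compounds, and grown at 37 °C for at least 48 hr. Viability was read as ATP luminescence.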
On the % scale 0 is the no-effect control and ±100 the full control effect; potency means the concentration at half of the fitted maximal effect; tags describe the fitted curve by direction and shape.

Compound	Potency	activity change, negative = growth inhibition
C[C@H](NS(=O)(=O)c1ccccc1)C(=O)N1CCN(C(c2ccccc2)c2ccccc2)CC1	inconclusive: 25.9 µM [inhibitor, single point]	–
CCOc1cc(C(=O)Nc2ccccc2N2CCOCC2)ccc1OCC(=O)N1CCCCC1	inconclusive: 29.1 µM [inhibitor, single point]	–
O=C(CSc1ccsc1[N+](=O)[O-])NCCc1ccc(Cl)cc1	inconclusive: 29.1 µM [inhibitor, partial curve, poor fit]	–
CCOC(=O)c1cccc(NC(=O)C(Cc2ccccc2)NS(=O)(=O)c2cccc3nsnc23)c1 (stereo unspecified)	inconclusive: 20.6 µM [inhibitor, single point]	–
COC(=O)c1ccc(CSc2nc3ccccc3c(=O)n2-c2cccc(OC)c2)o1	active: 20.6 µM	–
C[C@@H]1CN([C@@H](C)CO)C(=O)CCCn2nncc2CO[C@@H]1CN(C)S(=O)(=O)c1ccccc1F	inactive	–
C=CCC[C@@H](Cc1ccc(F)cc1)C(=O)O[C@H](CNC(=O)[C@H](CC=C)CC(=O)N(CCO)Cc1ccccc1)c1ccccc1	active: 18.4 µM	–
COc1cc2nc(Nc3ccc(F)cc3)nc(N)c2cc1OC	active: 6.51 µM	–
CCc1ccccc1OCCSc1nnc(-c2cc(OC)c(OC)c(OC)c2)o1	active: 18.4 µM	–
Cc1cc(OCC(=O)NC(C)c2ccccc2)ccc1[N+](=O)[O-] (stereo unspecified)	active: 18.4 µM	–
COc1cc(CNCCc2ccc(F)cc2)ccc1OCc1ccc(Cl)nc1	active: 18.4 µM	–
CCOC(=O)C1CCCN(C(=O)c2cc3c(OC)c(OC)c(OC)cc3[nH]2)C1 (stereo unspecified)	inconclusive: 16.4 µM [inhibitor, single point]	–
O=C(C[n+]1ccccc1)N/N=C/c1cc(Br)ccc1F	inactive	–
COc1cc2c(cc1OC)CN(C(=O)c1cccc([N+](=O)[O-])c1)CC2	active: 25.9 µM	–
COc1ccc(-c2noc(CN3CCCCC3c3nccn3C)n2)cc1 (stereo unspecified)	inactive	–
CC(=O)N1c2ccc(Cl)cc2C2C=CCC2C1c1cccc2ccccc12 (stereo unspecified)	active: 23.1 µM	–
CCOC(=O)c1[nH]c(C)c(C(=O)Nc2ccc(Cl)cc2)c1C	inactive	–
CC(C(=O)NCc1ccccc1)n1c(CSCCOc2ccccc2)nc2ccccc21 (stereo unspecified)	inconclusive: 14.6 µM [inhibitor, partial curve]	–
Cc1cc(=O)oc2c(C)c(OC(C)C(=O)NCC(O)c3ccccc3)ccc12 (stereo unspecified)	inactive	–
CC(C)(C)c1cn(-c2ccc(F)cc2)c(=S)[nH]1	inactive	–
Cc1cc(-c2nnc(SCC(=O)Nc3c(C)cccc3C)n2N)n[nH]1	inactive	–
CC1=NCCN1S(=O)(=O)c1cccc([N+](=O)[O-])c1	inconclusive: 25.9 µM [inhibitor, single point]	–
COC(=O)N/N=C/c1c[n+]([O-])c2ccccc2[n+]1[O-]	inactive and inconclusive: 29.1 µM [inhibitor, single point]	–
Oc1ccc(Br)cc1/C=N/Nc1ccccn1	active: 1.64 µM	–

Compound	Potency	activity change, negative = growth inhibition
COc1nc(NC(=O)c2ccc(F)cc2)nc(OC)c1-c1ccccc1	inactive	–
CC1(C)Cc2cccc(OCC(=O)OCC(=O)Nc3ccc(S(N)(=O)=O)cc3)c2O1	inactive	–
COc1ccc(NC(=O)CN(C)S(=O)(=O)c2cccc3nsnc23)cc1	inconclusive: 10.3 µM [inhibitor, single point]	–
COc1ccc(N2C(=O)CC(n3c(CCCCO)nc4ccccc43)C2=O)cc1 (stereo unspecified)	inconclusive: 23.1 µM [inhibitor, single point]	–
Cc1cc(S(=O)(=O)NCC(c2ccc(N(C)C)cc2)N2CCOCC2)ccc1F (stereo unspecified)	inactive	–
O=C(NNC(=O)c1cccc2ccccc12)c1ccccc1O	active: 14.6 µM	–
CCCN1C(=O)C(Cc2nc3ccccc3c(=O)n2C)c2ccccc21 (stereo unspecified)	inconclusive: 29.1 µM [inhibitor, single point]	–
CCN(CC)S(=O)(=O)c1cccc(-c2nnc(-c3ccc(C)cc3)o2)c1	inconclusive: 14.6 µM [inhibitor, partial curve, poor fit]	–
CCCCN1C(C)=CC(=C2C(=O)c3ccccc3C2=O)C=C1C	inactive	–
Cc1oc(-c2cc3c(cc2Cl)OCO3)nc1CN1CCCC1c1ccc(F)cc1 (stereo unspecified)	inactive	–
C[C@H](CO)N1C[C@H](C)[C@@H](CN(C)S(=O)(=O)c2ccc(F)cc2)Oc2ccc(NC(=O)Cc3cn(C)c4ccccc34)cc2C1=O	inconclusive: 29.1 µM [inhibitor, single point]	–
O=C(Cn1ncc2c(=O)oc3ccccc3c21)NCC1COc2ccccc2O1 (stereo unspecified)	inconclusive: 29.1 µM [inhibitor, single point]	–
COc1ccc(-c2ccc(NC(=O)c3ccc(Br)o3)cc2)nn1	inconclusive: 11.6 µM [inhibitor, partial curve]	–
CCOC(=O)N1CCN(C(=O)COc2ccc(Br)cc2Cl)CC1	inconclusive: 18.4 µM [inhibitor, single point]	–
CCCCCNC(=O)CCn1c(=O)[nH]c2ccccc2c1=O	inconclusive: 29.1 µM [inhibitor, single point]	–
Nc1c(C(=O)Nc2ccc(F)cc2)sc(=S)n1-c1ccccc1F	inconclusive: 18.4 µM [inhibitor, single point]	–
CCOC(=O)[C@]12CCC=C1N(Cc1ccc3c(c1)OCO3)C(=O)[C@H](CC(=O)N1CCSCC1)C2	inconclusive: 25.9 µM [inhibitor, single point]	–
CC(=O)c1ccc(NC(=O)c2nc3ccccc3n(C)c2=O)cc1	inactive	–
COc1cc(OC)cc(-c2sc3ccc(OC)cc3c2-c2ccc(O)cc2)c1	inconclusive: 29.1 µM [inhibitor, single point]	–
Cc1cc(C)c(NC(=O)c2ccccc2CCc2ccccc2)c(C)c1	active: 18.4 µM	–
CCn1nc(C)c2c(-c3ccccc3)cc(=O)n(C(C)C(=O)NCc3ccc(C)cc3)c21 (stereo unspecified)	active: 18.4 µM	–
CN(C(=O)CN(CCO)CC(=O)N(C)C(C)(C)Cc1ccccc1)C(C)(C)Cc1ccccc1	inactive and active: 3.66 µM	–
O=C(CC1(O)C(=O)Nc2ccccc21)c1ccccc1 (stereo unspecified)	–	inconclusive: -7.15% [inhibitor]
O=C(CC(=O)c1cccnc1)c1ccccc1	inconclusive: 29.1 µM [inhibitor, single point]	–

Compound	Potency	activity change, negative = growth inhibition
CCOc1ccc(-n2nnnc2SCC(=O)NC2CCCC2)cc1	inconclusive: 29.1 µM [inhibitor, single point]	–
CN(CC(=O)NCCN1CCN(c2ccccc2)CC1)S(=O)(=O)c1ccc2c(c1)CCC(=O)N2	inconclusive: 20.6 µM [inhibitor, partial curve, poor fit]	–
Cc1cc(Br)ccc1OCC(=O)NC1CCCC1	inconclusive: 29.1 µM [inhibitor, single point]	–
CCOc1ccc(N(CC(=O)Nc2ccccc2C(=O)NC(C)CC)S(C)(=O)=O)cc1 (stereo unspecified)	inactive	–
COc1ccc(CNC(=O)CN(C2CCCCC2)S(C)(=O)=O)cc1	inactive	–
COc1ccccc1-n1c(C)nnc1SCC(=O)Nc1cc(C)cc(C)c1	inconclusive: 14.6 µM [inhibitor, partial curve]	–
Cn1nc(C(F)(F)F)c(C#N)c1N1CCN(c2ccccc2)CC1	inconclusive: 16.4 µM [inhibitor, partial curve]	–
O=C1C(c2ccc(F)cc2)N(Cc2ccc3c(c2)OCO3)C(=O)CN1C1CCCC1 (stereo unspecified)	inconclusive: 10 µM [inhibitor, partial curve, poor fit]	–
O=C1c2ccccc2C(=O)N1CC(O)COc1ccc(Cl)cc1 (stereo unspecified)	inactive	–
CCCc1cc(C(=O)OCC(=O)N2CCN(c3ccc(OC)cc3)CC2)sc1C	inconclusive: 23.1 µM [inhibitor, single point]	–
COc1ccccc1-c1cnc2c(Nc3cccc(OC(F)(F)C(F)F)c3)nccn12	inconclusive: 29.1 µM [inhibitor, single point]	–
O=C(NCCSCc1ccco1)Nc1ccc(Cl)cc1	inconclusive: 2.91 µM [inhibitor, full curve, poor fit]	–
COc1ccc(-c2sc3ccccc3c2/C=C/c2ccc(OC)c(OC)c2)cc1	inactive	–
C/C=C(\C)C(=O)OC1[C@@H]2C=C3C4CC(=O)OC(c5ccoc5)[C@]4(C)CCC3[C@@](C)(C2=O)C(C(O)C(=O)OC)C1(C)C (stereo partly specified)	inactive	–
Cc1ccc(NC(=O)CN(C)C(=O)CSc2nnc(C)s2)cc1	inactive	–
O=S(=O)(Cc1ccccc1)Oc1ccccc1	inactive	–
COc1cccc(C(=O)N2CCN(C(=O)c3ccc(-c4ccccc4)cc3)CC2)c1OC	inconclusive: 16.4 µM [inhibitor, single point]	–
CNC(=S)N1N=C(c2ccccc2)CC1c1ccc(OC)c(OC)c1 (stereo unspecified)	inactive	–
CC(=O)c1c(C)[nH]c(C(=O)N2CCN(S(=O)(=O)c3ccc(C)cc3C)CC2)c1C	inconclusive: 18.4 µM [inhibitor, single point]	–
CO/N=C/c1ccc(Sc2ccc(C)cc2)c([N+](=O)[O-])c1	–	inconclusive: -34.9% [inhibitor]
Cc1ccc(CN(C(=O)COc2ccc(Cl)cc2Cl)C2CCS(=O)(=O)C2)o1 (stereo unspecified)	inconclusive: 29.1 µM [inhibitor, single point]	–
O=C(OCc1ccccc1)N1CCC2CC1c1cc(Cl)ccc12 (stereo unspecified)	inconclusive: 23.1 µM [inhibitor, single point]	–
CCN1C=C(Cc2ccc(F)cc2)C2=C(C1)C(c1ccc(F)cc1)C(C#N)=C(N)O2 (stereo unspecified)	inconclusive: 29.1 µM [inhibitor, single point]	–
